Each structure is given as a SMILES string. Counter-ions that a name gives are not always drawn. The list shows a part of the results.

The experiment has as its system Schistosoma mansoni schistosomula. Kind of experiment: phenotypic hit in primary schistosomula screen (any phenotype vs DMSO control) (binary (1 = hit, 0 = no phenotype)); higher = active (phenotype induced). As to conditions: 1 µM; time (d): 7.
As to `CO[C@@H]1[C@@H](OC(N)=O)[C@@H](O)[C@H](Oc2ccc3c(O)c(NC(=O)c4ccc(O)c(CC=C(C)C)c4)c(=O)oc3c2C)OC1(C)C` [novobiocin sodium], the phenotypic hit is inactive: 0.

Consider `O=C(NCO)c1cccnc1` [n-hydroxymethylnicotinamide], for which the phenotypic hit was inactive: 0. Consider `CC(C)CCC[C@@H](C)[C@H]1CC[C@H]2[C@@H]3CC=C4CC(=O)CC[C@]4(C)[C@H]3CC[C@]12C` [cholest-5-en-3-one], for which the phenotypic hit is inactive: 0. The value for `CCN(Cc1ccncc1)C(=O)C(CO)c1ccccc1` (stereo not given) [Tropicamide] was inactive: 0; that for `Cc1ncc([N+](=O)[O-])n1CCO` [metronidazole] was inactive: 0; that for `COC(=O)C[C@H]1C(C)(C)C(OC(C)=O)[C@]2(O)C=C3C4CC(=O)O[C@@H](c5ccoc5)[C@]4(C)CCC3[C@@]1(C)C2=O` (stereo not given in full) [humilin a] was inactive: 0. For `CC(=O)OC1CCC23CC1(C)CCC2C(C)(C)CC3OC(C)=O` (stereo not given) [clovanediol diacetate] the value was inactive: 0. Turning to `COc1ccc2[nH]cc(CCNC(C)=O)c2c1` [Melatonin], the phenotypic hit was inactive: 0.

On to `C=C(C)C1Cc2c(ccc(C(=O)O)c2O)O1` (stereo not given) [tubaic acid], for which the phenotypic hit was inactive: 0. On to `O=C([O-])c1ccccc1O.[Na+]` [sodium salicylate], for which the phenotypic hit is inactive: 0. For `NC[C@H]1O[C@H](O[C@H]2[C@H](O[C@@H]3O[C@H](CO)[C@@H](O)[C@H]3O)[C@@H](O)[C@H](N)C[C@@H]2N)[C@H](N)[C@@H](O)[C@@H]1O` [ribostamycin sulfate] the value was active: 1. For `COc1cc2nc(N3CCN(C(=O)c4ccco4)CC3)nc(N)c2cc1OC` [prazosin hydrochloride] the value was active: 1; for `CCn1cc(C(=O)O)c(=O)c2cnc(N3CCNCC3)nc21` [pipemidic acid], inactive: 0. Consider `CC(=O)Oc1ccc2c(c1C(C)C)CCC1C(C)(C)CCC[C@]21C` (stereo not given in full) [totarol acetate], for which the phenotypic hit is inactive: 0. Turning to `CC(=O)N[C@@H](CC(=O)N[C@@H](CCC(=O)O)C(=O)O)C(=O)O` [spaglumic acid], the phenotypic hit was inactive: 0.

`COc1ccc(-c2cc(=O)c3c(O)cc(O)cc3o2)cc1` [acacetin]: the phenotypic hit was inactive: 0. For `Cc1ccc(S(=O)(=O)NC(=O)NN2CC3CCCC3C2)cc1` (stereo not given) [gliclazide] the value was inactive: 0.

As to `O=c1c(O)cccc2cc(O)c(O)c(O)c12` [purpurogallin], the phenotypic hit is inactive: 0.

For the molecule `O=C(O)c1cc2ccccc2[nH]1` [indole-2-carboxylic acid], the phenotypic hit is inactive: 0. On to `O=c1c(O)c(-c2cc(O)c(O)c(O)c2)oc2cc(O)cc(O)c12` [myricetin], for which the phenotypic hit is inactive: 0.

As to `Nc1nc(=O)c2[nH]c(=O)cnc2[nH]1` [xanthopterin], the phenotypic hit was inactive: 0. As to `CC(=O)O[C@H]1CC[C@@]2(C)[C@H](CC[C@@H]3[C@@H]2CC[C@]2(C)[C@@H]4[C@H](C[C@@H]32)O[C@]2(CC[C@@H](C)CO2)[C@H]4C)C1` [smilagenin acetate], the phenotypic hit was inactive: 0. In the case of `C#CCN(C)Cc1ccccc1` [Pargyline hydrochloride], the phenotypic hit was active: 1.

`COC(=O)[C@]1(C)CCC[C@]2(C)c3ccc(C(C)C)cc3C(=O)CC12` (stereo not given in full) [7-oxocallitrisic acid, methyl ester]: the phenotypic hit is inactive: 0.

Regarding `C[C@H]1[C@@H](O)O[C@@H]2O[C@@]3(C)CC[C@H]4[C@H](C)CC[C@@H]1[C@@]24OO3` [dihydroartemisinin], the phenotypic hit is inactive: 0. Regarding `CCn1cc(C(=O)O)c(=O)c2ccc(C)nc21` [nalidixic acid], the phenotypic hit is inactive: 0.

For `CCOc1ccc(C(=O)c2cc(O)c(OC)c(OC)c2O)cc1` [2,4-dihydroxy-3,4-dimethoxy-4'-ethoxybenzophenone], the phenotypic hit was inactive: 0.

Turning to `O=C(O)CCC(=O)OC[C@@H](NC(=O)C(Cl)Cl)[C@H](O)c1ccc([N+](=O)[O-])cc1` [chloramphenicol hemisuccinate], the phenotypic hit is inactive: 0.

Take `COc1ccc2cc(CCC(C)=O)ccc2c1` [nabumetone]: the phenotypic hit was inactive: 0. The value for `COc1cc2c(cc1OC)C1C(=O)c3c(OC)cc4c(c3OC1CO2)CCC(C)(C)O4` (stereo not drawn) [dihydro-alpha-toxicarol methyl ether] was inactive: 0.

In the case of `CCCCCC(C)N` (stereo not given) [tuaminoheptane sulfate], the phenotypic hit was inactive: 0. With `O=C(CCCN1CC=C(n2c(=O)[nH]c3ccccc32)CC1)c1ccc(F)cc1` [droperidol], the phenotypic hit is inactive: 0.

As to `CCN(CC)CCNC(=O)c1cc(S(C)(=O)=O)ccc1OC` [tiapride hydrochloride], the phenotypic hit was inactive: 0. For `CC1(C)C(=O)CC[C@@]2(C)C1C[C@@H](O)[C@@]1(C)C3=CC(=O)O[C@@H](c4ccoc4)[C@]3(C)CCC21` (stereo not given in full) [dihydro-7-desacetyldeoxygedunin], the phenotypic hit was inactive: 0. On to `Oc1c(I)cc(I)c2cccnc12` [iodoquinol], for which the phenotypic hit was inactive: 0. Take `CCOc1cccc(C(=O)c2ccc(O)c(O)c2O)c1` [3,4-didesmethyl-5-deshydroxy-3'-ethoxyscleroin]: the phenotypic hit is inactive: 0. Consider `O=C(Cn1ccnc1[N+](=O)[O-])NCCO` [etanidazole], for which the phenotypic hit was inactive: 0. The value for `CC(=O)OCC(COC(C)=O)OC(C)=O` [triacetin] was inactive: 0; that for `CN(C)CCN(Cc1cccs1)c1ccccn1` [methapyrilene hydrochloride] was inactive: 0; that for `COc1ccc([C@H]2COc3c(ccc(O)c3OC)C2)c(OC)c1O` [duartin (-)] was inactive: 0. In the case of `COc1ccc2c(c1)OCc1c-2oc2cc(OC)ccc12` [dehydrovariabilin], the phenotypic hit was inactive: 0. Regarding `NC(=O)N1c2ccccc2C=Cc2ccccc21` [Carbamazepine], the phenotypic hit is inactive: 0.

For the molecule `COc1c2ccoc2nc2c(OC)c(OCC(O)C(C)(C)O)ccc12` (stereo not given) [evoxine], the phenotypic hit was inactive: 0. As for `CC(C)(O)[C@@H]1Cc2cc3ccc(=O)oc3cc2O1` [marmesin], the phenotypic hit was inactive: 0. With `CC[C@H]1OC(=O)[C@H](C)[C@@H](O[C@H]2C[C@@](C)(OC)[C@@H](O)[C@H](C)O2)[C@H](C)[C@@H](O[C@@H]2O[C@H](C)C[C@H](N(C)C)[C@H]2O)[C@](C)(O)C[C@@H](C)/C(=N\OCOCCOC)[C@H](C)[C@@H](O)[C@]1(C)O` [roxithromycin], the phenotypic hit is inactive: 0.
